# Reference: patent publication US7772236B2, “Substituted pyrazoles” (Ortho McNeil Pharmaceutical, Inc., priority 2000, dated 2010)
# pIC50: −log10 of the molar value.
# Biological target: Recombinant human cathepsin S (CatS) (Homo sapiens, UniProt P25774)
# Assay: biochemical
row,pIC50,SMILES
1,5.80,"COc1ccccc1N1CCN(CCCn2nc(-c3ccc(Cl)cc3)c3c2CCN(C(C)=O)C3)CC1 [Example 176, 1-(3-(4-Chloro-phenyl)-1-{3-[4-(2-methoxy-phenyl)-piperazin-1-yl]-propyl}-1,4,6,7-tetrahydro-pyrazolo[4,3-c]pyridin-5-yl)-ethanone]"
2,5.72,"CC(=O)OC(CN1CCN(c2ccccc2C)CC1)Cn1nc(-c2ccc(Cl)cc2)c2c1CCN(C(C)=O)C2 (stereo not shown) [Example 164, Acetic acid 1-[5-acetyl-3-(4-chloro-phenyl)-4,5,6,7-tetrahydro-pyrazolo[4,3-c]pyridin-1-ylmethyl]-2-(4-o-tolyl-piperazin-1-yl)-ethyl ester]"
3,5.72,"CC(=O)N1CCc2c(c(-c3ccc(Cl)cc3)nn2CC(O)CN2CCN(c3ccccn3)CC2)C1 (stereo not shown) [Example 123, 1-{3-(4-Chloro-phenyl)-1-[2-hydroxy-3-(4-pyridin-2-yl-piperazin-1-yl)-propyl]-1,4,6,7-tetrahydro-pyrazolo[4,3-c]pyridin-5-yl}-ethanone]"
4,5.48,"CC(=O)N1CCc2c(c(-c3ccc(Cl)cc3)nn2CC(O)CN2CCN(S(=O)(=O)c3ccccc3Cl)CC2)C1 (stereo not shown) [Example 195, 1-[1-{3-[4-(2-Chloro-benzenesulfonyl)-piperazin-1-yl]-2-hydroxy-propyl}-3-(4-chloro-phenyl)-1,4,6,7-tetrahydro-pyrazolo[4,3-c]pyridin-5-yl]-ethanone]"
5,6.70,"Cc1cccc(C)c1N1CCN(CC(O)Cn2nc(-c3ccc(C(F)(F)F)cc3)c3c2CCN(S(C)(=O)=O)C3)CC1 (stereo not shown) [Example 287, 1-[4-(2,6-Dimethyl-phenyl)-piperazin-1-yl]-3-[5-methanesulfonyl-3-(4-trifluoromethyl-phenyl)-4,5,6,7-tetrahydro-pyrazolo[4,3-c]pyridin-1-yl]-propan-2-ol]"
6,5.74,"CC(=O)N1CCc2c(c(-c3ccc(Cl)cc3)nn2CC(O)CN2CCN(c3cc(C(F)(F)F)ccn3)CC2)C1 (stereo not shown) [Example 150, 1-(3-(4-Chloro-phenyl)-1-{2-hydroxy-3-[4-(4-trifluoromethyl-pyridin-2-yl)-piperazin-1-yl]-propyl}-1,4,6,7-tetrahydro-pyrazolo[4,3-c]pyridin-5-yl)-ethanone]"
7,6.85,"COC(=O)c1cccc(Cl)c1N1CCN(CC(O)Cn2nc(-c3ccc(C(F)(F)F)cc3)c3c2CCN(S(C)(=O)=O)C3)CC1 (stereo not shown) [Example 293, 3-Chloro-2-(4-{2-hydroxy-3-[5-methanesulfonyl-3-(4-trifluoromethyl-phenyl)-4,5,6,7-tetrahydro-pyrazolo[4,3-c]pyridin-1-yl]-propyl}-piperazin-1-yl)-benzoic acid methyl ester]"
8,6.48,"COc1ccccc1N1CCN(CC(O)Cn2nc(-c3ccc(Cl)c(C)c3)c3c2CCN(C(C)=O)C3)CC1 (stereo not shown) [Example 193, 1-(3-(4-Chloro-3-methyl-phenyl)-1-{2-hydroxy-3-[4-(2-methoxy-phenyl)-piperazin-1-yl]-propyl}-1,4,6,7-tetrahydro-pyrazolo[4,3-c]pyridin-5-yl)-ethanone]"
9,6.20,"CC(=O)N1CCc2c(c(-c3ccc(Cl)cc3)nn2CC(O)CN2CCN(c3ccc(C)cc3)C(C)C2)C1 (stereo not shown) [Example 148, 1-{3-(4-Chloro-phenyl)-1-[2-hydroxy-3-(3-methyl-4-p-tolyl-piperazin-1-yl)-propyl]-1,4,6,7-tetrahydro-pyrazolo[4,3-c]pyridin-5-yl}-ethanone]"
10,6.64,"Cc1ccccc1N1CCN(CC(O)Cn2nc(-c3ccc(I)cc3)c3c2CCN(S(C)(=O)=O)C3)CC1 (stereo not shown) [Example 223, 1-[3-(4-Iodo-phenyl)-5-methanesulfonyl-4,5,6,7-tetrahydro-pyrazolo[4,3-c]pyridin-1-yl]-3-(4-o-tolyl-piperazin-1-yl)-propan-2-ol]"
11,5.08,"Oc1ccccc1N1CCN(CC(O)Cn2nc(-c3ccc(Cl)cc3)c3c2CCCC3)CC1 (stereo not shown) [Example 185, 2-(4-{3-[3-(4-Chloro-phenyl)-4,5,6,7-tetrahydro-indazol-1-yl]-2-hydroxy-propyl}-piperazin-1-yl)-phenol]"
12,5.57,"CCNC(=O)Nc1cc(-c2nn(CC(O)CN3CCN(c4ccccc4C)CC3)c3c2CN(C(C)=O)CC3)ccc1Cl (stereo not shown) [Example 228, 1-(5-{5-Acetyl-1-[2-hydroxy-3-(4-o-tolyl-piperazin-1-yl)-propyl]-4,5,6,7-tetrahydro-1H-pyrazolo[4,3-c]pyridin-3-yl}-2-chloro-phenyl)-3-ethyl-urea]"
13,6.72,"CC(=O)N1CCc2c(c(-c3ccc(Br)cc3)nn2CCCN2CCN(c3nsc4ccccc34)CC2)C1 [Example 278, 1-[1-[3-(4-Benzo[d]isothiazol-3-yl-piperazin-1-yl)-propyl]-3-(4-bromo-phenyl)-1,4,6,7-tetrahydro-pyrazolo[4,3-c]pyridin-5-yl]-ethanone]"
14,5.74,"O=[N+]([O-])c1ccccc1N1CCN(CCCn2nc(-c3ccc(Br)cc3)c3c2CCNC3)CC1 [Example 270, 3-(4-Bromo-phenyl)-1-{3-[4-(2-nitro-phenyl)-piperazin-1-yl]-propyl}-4,5,6,7-tetrahydro-1H-pyrazolo[4,3-c]pyridine]"
15,6.82,"CS(=O)(=O)N1CCc2c(c(-c3ccc(Br)cc3)nn2CCCN2CCN(c3ccccc3[N+](=O)[O-])CC2)C1 [Example 272, 3-(4-Bromo-phenyl)-5-methanesulfonyl-1-{3-[4-(2-nitro-phenyl)-piperazin-1-yl]-propyl}-4,5,6,7-tetrahydro-1H-pyrazolo[4,3-c]pyridine]"
16,5.34,"CC(=O)N1CCc2c(c(-c3ccc(Cl)c(C)c3)nn2CC(O)CN2CCN(Cc3ccccc3C#N)CC2)C1 (stereo not shown) [Example 251, 2-(4-{3-[5-Acetyl-3-(4-chloro-3-methyl-phenyl)-4,5,6,7-tetrahydro-pyrazolo[4,3-c]pyridin-1-yl]-2-hydroxy-propyl}-piperazin-1-ylmethyl)-benzonitrile]"
17,5.00,"Cc1ccccc1N1CCN(CC(O)Cn2nc(-c3ccc(Cl)cc3)c3c2CCNC3)CC1 (stereo not shown) [Example 219, 1-[3-(4-Chloro-phenyl)-4,5,6,7-tetrahydro-pyrazolo[4,3-c]pyridin-1-yl]-3-(4-o-tolyl-piperazin-1-yl)-propan-2-ol]"

row,SMILES,pIC50
1,"CS(=O)(=O)N1CCc2c(c(-c3ccc(C(F)(F)F)cc3)nn2CC(O)CN2CCN(c3c(Cl)cccc3[N+](=O)[O-])CC2)C1 (stereo not shown) [Example 35, 1-[4-(2-Chloro-6-nitro-phenyl)-piperazin-1-yl]-3-[5-methanesulfonyl-3-(4-trifluoromethyl-phenyl)-4,5,6,7-tetrahydro-pyrazolo[4,3-c]pyridin-1-yl]-propan-2-ol]",6.92
2,"CS(=O)(=O)N1CCc2c(c(-c3ccc(I)cc3)nn2CC(O)CN2CCN(c3ccccc3C#N)CC2)C1 (stereo not shown) [Example 36, 2-(4-{2-Hydroxy-3-[3-(4-iodo-phenyl)-5-methanesulfonyl-4,5,6,7-tetrahydro-pyrazolo[4,3-c]pyridin-1-yl]-propyl}-piperazin-1-yl)-benzonitrile]",6.92
3,"CC(=O)N1CCc2c(c(-c3ccc(C(F)(F)F)cc3)nn2CC(O)CN2CCN(c3nc4ccc(Cl)cc4s3)CC2)C1 (stereo not shown) [Example 23, 1-[1-{3-[4-(6-Chloro-benzothiazol-2-yl)-piperazin-1-yl]-2-hydroxy-propyl}-3-(4-trifluoromethyl-phenyl)-1,4,6,7-tetrahydro-pyrazolo[4,3-c]pyridin-5-yl]-ethanone]",5.96
4,"CS(=O)(=O)N1CCc2c(c(-c3ccc(C(F)(F)F)cc3)nn2CCCN2CCN(c3c(Cl)cccc3NC(N)=O)CC2)C1 [Example 283, [3-Chloro-2-(4-{3-[5-methanesulfonyl-3-(4-trifluoromethyl-phenyl)-4,5,6,7-tetrahydro-pyrazolo[4,3-c]pyridin-1-yl]-propyl}-piperazin-1-yl)-phenyl]-urea]",7.10
5,"CC(C)(C)OC(=O)N1CCc2c(c(-c3ccc(I)cc3)nn2CC(O)CN2CCN(c3ccccc3C#N)CC2)C1 (stereo not shown) [Example 9, 1-{3-[4-(2-Cyano-phenyl)-piperazin-1-yl]-2-hydroxy-propyl}-3-(4-iodo-phenyl)-1,4,6,7-tetrahydro-pyrazolo[4,3-c]pyridine-5-carboxylic acid tert-butyl ester]",5.94
6,"CC(=O)N1CCc2c(c(-c3ccc(C(F)(F)F)cc3)nn2CC(F)CN2CCN(c3ccccc3C#N)CC2)C1 (stereo not shown) [Example 14, 2-(4-{3-[5-Acetyl-3-(4-trifluoromethyl-phenyl)-4,5,6,7-tetrahydro-pyrazolo[4,3-c]pyridin-1-yl]-2-fluoro-propyl}-piperazin-1-yl)-benzonitrile]",6.60
7,"CC(=O)N1CCc2c(c(-c3ccc(C(F)(F)F)cc3)nn2CC(CN2CCN(c3ccccc3C)CC2)NCCN2CCNCC2)C1 (stereo not shown) [Example 8, 1-[1-[2-(2-piperazin-1-yl-ethylamino)-3-(4-o-tolyl-piperazin-1-yl)-propyl]-3-(4-trifluoromethyl-phenyl)-1,4,6,7-tetrahydro-pyrazolo[4,3-c]pyridin-5-yl]-ethanone]",6.05
8,"CC(=O)N1CCc2c(c(-c3ccc(I)cc3)nn2CC(O)CN2CCN(c3ccccc3O)CC2)C1 (stereo not shown) [Example 4, 1-[1-{2-Hydroxy-3-[4-(2-hydroxy-phenyl)-piperazin-1-yl]-propyl}-3-(4-iodo-phenyl)-1,4,6,7-tetrahydro-pyrazolo[4,3-c]pyridin-5-yl]-ethanone]",6.29
9,"CC(=O)N1CCc2c(c(-c3ccc(Cl)cc3)nn2CCCN2CCN(c3ccccc3F)CC2)C1 [Example 1, 1-(3-(4-Chloro-phenyl)-1-{3-[4-(2-fluoro-phenyl)-piperazin-1-yl]-propyl}-1,4,6,7-tetrahydro-pyrazolo[4,3-c]pyridin-5-yl)-ethanone]",6.05
10,"NC(=O)N1CCc2c(c(-c3ccc(Br)cc3)nn2CCCN2CCN(c3ccccc3[N+](=O)[O-])CC2)C1 [Example 37, 3-(4-Bromo-phenyl)-1-{3-[4-(2-nitro-phenyl)-piperazin-1-yl]-propyl}-1,4,6,7-tetrahydro-pyrazolo[4,3-c]pyridine-5-carboxylic acid amide]",6.92
11,"CS(=O)(=O)Nc1cccc(Cl)c1N1CCN(CC(O)Cn2nc(-c3ccc(C(F)(F)F)cc3)c3c2CCN(S(C)(=O)=O)C3)CC1 (stereo not shown) [Example 19, N-[3-Chloro-2-(4-{2-hydroxy-3-[5-methanesulfonyl-3-(4-trifluoromethyl-phenyl)-4,5,6,7-tetrahydro-pyrazolo[4,3-c]pyridin-1-yl]-propyl}-piperazin-1-yl)-phenyl]-methanesulfonamide]",7.22
